Data as given in the supplement of paper PMC4604168 (melanoma cell lines).
This is one part of the list. Most values come without repeats; read them as rough.

test system: A375; assay: cell count relative to DMSO control; melanoma cells; higher = more viable cells; details: library dose: standard library concentration; 72 h
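Further: cells treated in 1,536-well plates, then fixed and DAPI-stained, with nuclei counted from automated high-throughput microscope images.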

For `C[C@]1(O)C[C@@H](c2nc(-c3ccc4ccc(-c5ccccc5)nc4c3)c3c(N)nccn32)C1` + Nc1ccn([C@@H]2O[C@H](CO)[C@@H](O)C2(F)F)c(=O)n1 [gemcitabine] (first compound 2 µM, partner dose 0.002 µM), which cell count is on record?
The cell count was 62.6%.

How did the cell count turn out when `CCN(CC)CCNC(=O)c1c(C)[nH]c(/C=C2\C(=O)Nc3ccc(F)cc32)c1C` [sunitinib] + OCCn1cc(-c2cnc3nnn(Cc4ccc5ncccc5c4)c3n2)cn1 [PF04217903] (first compound 2 µM, partner dose 5 µM) was run?
The cell count was 96.6%.

For `C[C@]1(O)C[C@@H](c2nc(-c3ccc4ccc(-c5ccccc5)nc4c3)c3c(N)nccn32)C1` + C=CCn1c(=O)c2cnc(Nc3ccc(N4CCN(C)CC4)cc3)nc2n1-c1cccc(C(C)(C)O)n1 [MK1775] (first compound 2 µM, partner dose 0.1 µM), which cell count is on record?
The cell count was 41%.

`CCN(CC)CCNC(=O)c1c(C)[nH]c(/C=C2\C(=O)Nc3ccc(F)cc32)c1C` [sunitinib] + CNC(=O)c1cc(Oc2ccc(NC(=O)Nc3ccc(Cl)c(C(F)(F)F)c3)cc2)ccn1 [sorafenib] (first compound 2 µM, partner dose 2 µM) was tested. Which cell count did it give?
The cell count was 124%.

With `C[C@]1(O)C[C@@H](c2nc(-c3ccc4ccc(-c5ccccc5)nc4c3)c3c(N)nccn32)C1` + CCN(CC)CCNC(=O)c1c(C)[nH]c(/C=C2\C(=O)Nc3ccc(F)cc32)c1C [sunitinib] (first compound 2 µM, partner dose 2 µM) as the compound, how does the cell count read?
The cell count was 94.6%.

With `COc1cc([C@@H]2c3cc4c(cc3[C@@H](O[C@@H]3O[C@@H]5CO[C@@H](C)O[C@H]5[C@H](O)[C@H]3O)[C@H]3COC(=O)[C@H]23)OCO4)cc(OC)c1O` [etoposide] + O=C(O)[C@@H]1[O][Sb](=[O])([O][Sb]2(=[O])[O][C@H]([C@H](O)CO)[C@H](O)[C@H](C(=O)O)[O]2)[O][C@H]([C@H](O)CO)[C@@H]1O [stibogluconate] (first compound 0.1 µM, partner dose 10 µM) as the compound, how does the cell count read?
The cell count was 70.2%.

Which cell count does the source give for `COc1cc([C@@H]2c3cc4c(cc3[C@@H](O[C@@H]3O[C@@H]5CO[C@@H](C)O[C@H]5[C@H](O)[C@H]3O)[C@H]3COC(=O)[C@H]23)OCO4)cc(OC)c1O` [etoposide] + Cn1nnc2c(C(N)=O)ncn2c1=O [temozolomide] (first compound 0.1 µM, partner dose 10 µM) here?
Its cell count is 59.7%.

With `C[C@]1(O)C[C@@H](c2nc(-c3ccc4ccc(-c5ccccc5)nc4c3)c3c(N)nccn32)C1` + CN(C)S(=O)(=O)c1ccc2c(c1)/C(=C/c1cc3c([nH]1)CCCC3)C(=O)N2 [SU6656] (first compound 2 µM, partner dose 2 µM) as the compound, how does the cell count read?
Its cell count is 97.1%.

How did the cell count turn out when `C[C@]1(O)C[C@@H](c2nc(-c3ccc4ccc(-c5ccccc5)nc4c3)c3c(N)nccn32)C1` + CC(=O)O[C@@]12CO[C@@H]1C[C@H](O)[C@@]1(C)C(=O)[C@H](O)C3=C(C)[C@@H](OC(=O)[C@H](O)[C@@H](NC(=O)OC(C)(C)C)c4ccccc4)C[C@@](O)([C@@H](OC(=O)c4ccccc4)[C@H]21)C3(C)C [Docetaxel] (first compound 2 µM, partner dose 0.0005 µM) was run?
The cell count was 63.3%.

For `COc1cc([C@@H]2c3cc4c(cc3[C@@H](O[C@@H]3O[C@@H]5CO[C@@H](C)O[C@H]5[C@H](O)[C@H]3O)[C@H]3COC(=O)[C@H]23)OCO4)cc(OC)c1O` [etoposide] + Cc1cn(-c2cc(NC(=O)c3ccc(C)c(Nc4nccc(-c5cccnc5)n4)c3)cc(C(F)(F)F)c2)cn1 [nilotinib] (first compound 0.1 µM, partner dose 1 µM), which cell count is on record?
Its cell count is 87.6%.

How did the cell count turn out when `C[C@]1(O)C[C@@H](c2nc(-c3ccc4ccc(-c5ccccc5)nc4c3)c3c(N)nccn32)C1` + C=CCNC1=C2C[C@@H](C)C[C@H](OC)[C@H](O)[C@@H](C)/C=C(\C)[C@H](OC(N)=O)[C@@H](OC)/C=C\C=C(/C)C(=O)NC(=CC1=O)C2=O [Tanespimycin] (first compound 2 µM, partner dose 0.01 µM) was run?
The cell count was 87.6%.

How did the cell count turn out when `COc1cc([C@@H]2c3cc4c(cc3[C@@H](O[C@@H]3O[C@@H]5CO[C@@H](C)O[C@H]5[C@H](O)[C@H]3O)[C@H]3COC(=O)[C@H]23)OCO4)cc(OC)c1O` [etoposide] + OCCn1cc(-c2cnc3nnn(Cc4ccc5ncccc5c4)c3n2)cn1 [PF04217903] (first compound 0.1 µM, partner dose 5 µM) was run?
The cell count was 77.7%.
